PubChem BioAssay AID1508642 (National Center for Advancing Translational Sciences (NCATS), 2021)
Hit rate of the full screen: of about 43,000 compounds, about 200 (0.47%) were called active. Another 12% or so got no clear call; they are omitted. Calls come from the whole dose curve; as a rule, active = well fitted cell-killing curve with a large enough effect; inconclusive = small, poorly fitted or top-dose-only effect, or effect the other way; inactive = flat fitted curve, though single readings scatter. Some of the results follow.

Experiment: Cell viability qHTS assay in S16 Pmp22-F2sN cells; note: nearly all actives have a fitted effect of over 65% in size
Conditions: S16 Pmp22-F2sN Schwann cells viability, CellTiter-Glo, 24 h; series mostly up to 57.5 µM; activity change, negative = cytotoxicity: at the top concentration
Summary of the method: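 Viability was measured by CellTiter-Glo luminescence (15 min, room temperature). This followed 24 h at 37 °C of compound exposure (23 nL pin transfer) in S16 Pmp22-F2sN Schwann cells, 500-1,000 per well.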
% is set by controls: 0 for no effect and ±100 for the full control effect.

SMILES | activity change, negative = cytotoxicity
COc1ccc(C)cc1NC(=O)CN(C)S(=O)(=O)c1ccc2c(c1)c(=O)n(C)c(=O)n2C | inactive: 4.81%
Cc1ccccc1NC(=O)c1c(C)oc2ccc(O)c(CN3CCCCCC3)c12 | inactive: -3.61%
Cc1nc(-c2ccc(S(=O)(=O)N3CCN(c4ccccc4F)CC3)cc2)co1 | inactive: -0.513%
Cc1ccccc1NC(=O)c1sc2nc(-c3cc4ccccc4oc3=O)[nH]c(=O)c2c1C | inactive: 4.13%
CCN(C(=O)Cn1c(C(=O)OC)cc2sccc21)c1cccc(C)c1 | inactive: -3.02%
COc1ccccc1N1CCN(C(=O)c2nn(C)c3c2CS(=O)(=O)c2ccccc2-3)CC1 | inactive: -0.745%
CC(C)c1ccc(C2CC(=O)N3CN(C4CCCCC4)CSC3=C2C#N)cc1 (stereo unspecified) | inactive: 0.287%
Cn1ccc2cc(S(=O)(=O)N3CCCC(C(=O)NCc4ccccc4F)C3)ccc21 (stereo unspecified) | inactive: -1.54%
Cc1ccccc1-c1nc(CNC(=O)NC2CCCCC2)c(C)o1 | inactive: 2.5%
CC1=C(C(=O)Nc2ccccc2)C(c2ccc(Br)cc2)n2nc(CCCO)nc2N1 (stereo unspecified) | inactive: 16.3%
COc1ccc(-n2ncc3c2ncn2nc(-c4ccc(OC)c(OC)c4)nc32)cc1 | inactive: -1.58%
Cn1cc(S(=O)(=O)N2CCCC2)cc1C(=O)Nc1ccc(F)cc1F | inactive: 17.8%
CCOC(=O)c1ccc(NC(=O)Cc2noc3ccc(C)cc23)cc1 | inactive: 1.27%
COc1cccc(CNC(=O)CN2C(=O)COc3ccc(S(=O)(=O)N4CCCCC4)cc32)c1 | inactive: 5.75%
CCN(CC)c1ccc(CN(C(=O)c2cc(=O)c3ccccc3o2)C2CCS(=O)(=O)C2)cc1 (stereo unspecified) | inactive: 5.03%
COc1ccc(-c2cc(OC(=O)c3cccc(Cl)c3)c3c(C)oc(C)c3c(=O)c2)cc1OC | inactive: -17.7%
COc1ccc(CN(Cc2ccco2)C(=O)COc2ccccc2Cl)cc1 | inactive: -0.0524%
Cc1cc(C)c(S(=O)(=O)NCC2CCC(C(=O)NCCc3ccccc3)CC2)c(C)c1 (stereo unspecified) | inactive: -2.15%
COC(=O)c1ccccc1NC(=O)c1ccc2c(c1)CCN2S(=O)(=O)c1ccc(Cl)cc1 | inactive: -3.13%
Cc1ccc(C)c(Cn2c3ccccc3c3cnn(CC(=O)NC4CCCCCC4)c(=O)c32)c1 | inactive: 16.6%
Cc1c(Cl)cccc1NC(=O)CSc1nc(=O)[nH]c2c1CCC2 | inactive: -8.26%

SMILES | activity change, negative = cytotoxicity
Cc1c2cnn(-c3ccccc3)c(=O)c2c(C)n1CCCC(=O)Nc1cccc(F)c1 | inactive: -9.71%
O=c1n(Cc2ccccc2)nc2n1-c1cc(Cl)ccc1OC2 | inactive: 10.7%
COc1cc(OC)cc(C(=O)N2CCN(C(=O)COc3ccc(C)cc3)CC2)c1 | inactive: 3.35%
COc1cccc(-n2c(SCC(=O)Nc3ccc4c(c3)OCO4)nc3c([nH]c4ccccc43)c2=O)c1 | inactive: 16.4%
CCN(CC)c1ccc(NC(=O)Cn2nc3c(cc2=O)CCCC3)c(C)c1 | inactive: -6.97%
CCc1c(C)sc(NC(=O)c2cc3nc(-c4ccc(OC)cc4)cc(C(F)(F)F)n3n2)c1C(=O)OC | inactive: 5.91%
Cc1ccccc1NC(=O)CSc1nc(-c2cccs2)nc2cc(=O)[nH]n12 | inactive: 2.69%
COc1ccc(-n2nc(C(=O)Nc3cc(C)c(Cl)cc3OC)c3c4ccccc4n(C)c3c2=O)cc1 | inactive: -8.92%
CC(NS(=O)(=O)c1ccc2c(c1)CCN2C(=O)CCCC(=O)O)c1ccccc1 (stereo unspecified) | inactive: -1.8%
O=C(Cn1cc(SCc2ccc(Cl)cc2)c2ccccc21)N1CCOCC1 | inactive: 8.41%
CCCc1nn2c(=O)cc(COC(=O)c3cccc(NC(=O)c4ccc(OCC)cc4)c3)nc2s1 | inactive: -12%
COc1cc(C2c3c(-c4cc(C)ccc4O)n[nH]c3C(=O)N2Cc2ccco2)cc(OC)c1OC (stereo unspecified) | inactive: 18.8%
COC(=O)CSc1nc2sc3c(c2c(=O)n1-c1ccccc1)C(C)CCC3 (stereo unspecified) | inactive: 4.61%
CC(C)Oc1ccc(C(=O)Nc2nnc3n2CCS3)cc1 | inactive: -6.44%
COc1ccc(NC(=O)c2cc(S(=O)(=O)N3CCCC(C)C3)cn2C)c(OC)c1 (stereo unspecified) | inactive: 6.08%
COc1ccc(NC(=O)CSc2nc3ccccc3n2CC(=O)N(C)C2CCCCC2)cc1 | inactive: -12.8%
CCOC(=O)c1cc(-c2ccc(F)cc2)n(CCC(=O)Nc2cc(OC)cc(OC)c2)c1C | inactive: -0.323%
O=C(Nc1ccccc1C(F)(F)F)C1CCN(S(=O)(=O)c2ccccc2)CC1 | inactive: -2.42%
O=C(CSc1nc2ncccc2o1)Nc1ccc(Cl)cc1F | inactive: -4.1%
Cn1c(=O)c2c(nc(N3CCOCC3)n2Cc2ccccc2F)n(C)c1=O | inactive: 8.53%
Cc1ccc(-c2nc3cccc(C)n3c2Nc2ccc3c(c2)OCO3)o1 | inactive: -19.5%

SMILES | activity change, negative = cytotoxicity
CCOc1ccccc1C(=O)N1CCc2cc(OC)c(OC)cc2C1COc1ccc(OC)cc1 (stereo unspecified) | inactive: 11.2%
COc1cccc(CNC(=O)Cn2ncn3c(cc4ccccc43)c2=O)c1 | inactive: 5.65%
Cc1nn(-c2ccccc2)c(OC(=O)c2ccc(Cl)cc2)c1S(=O)(=O)c1ccccc1 | inactive: 12.4%
COc1ccc(OC)c(NC(=O)c2cc3cccc(OC)c3oc2=O)c1 | inactive: -2.34%
CCCNC(=O)c1ccc(Cn2c(SCC(N)=O)nc3ccccc3c2=O)cc1 | inactive: 17.8%
O=C(c1cc(-c2ccc(Br)cc2)n[nH]1)N1CCN(S(=O)(=O)c2ccc(Cl)s2)CC1 | inactive: 3.1%
O=C(CSc1nc(=O)n(CCN2CCOCC2)c2c1CCC2)Nc1ccc(F)cc1F | inactive: 4.89%
COCCCn1c(SCC(=O)Nc2ccc(OC)cc2)nc2c(sc3ccccc32)c1=O | inactive: 10.7%
CC(C)CC(=O)Nc1ccc2nc(SCC(=O)N3CCOCC3)sc2c1 | inactive: 0.537%
COc1ccc(CNS(=O)(=O)c2cc3c(cc2Cl)NC(=O)CO3)cc1 | inactive: 0.137%
CCC(=O)Oc1c(Sc2ccc(C)cc2)c(C)nn1-c1ccccc1 | inactive: -2.26%
O=C(CCC1N=C2c3ccccc3N=C(SCc3ccc(F)cc3)N2C1=O)N1CCN(c2ccccc2)CC1 (stereo unspecified) | inactive: -25.4%
COc1ccc(N2CCN(C(=O)CCCCn3c(=O)[nH]c4ccsc4c3=O)CC2)cc1 | inactive: -25%
Clc1ccc(-c2nc3ncccn3c2Nc2ccc3c(c2)OCCO3)cc1 | inactive: 21.1%
CCOC(=O)c1ccc(N2C(=O)c3n[nH]c(-c4cccs4)c3C2c2cccc(O)c2)cc1 (stereo unspecified) | inactive: -17.5%
COc1ccc(N(C)C(=O)c2oc(=O)c3ccccc3c2-c2ccc(C)cc2)c(OC)c1 | inactive: 5.29%
N#Cc1c(-n2ncnc2-c2ccccc2Cl)sc2c1CCCCC2 | inactive: -2.5%
Cc1cccc(Nc2cc(C)nc3nc(-c4ccccc4)nn23)c1 | inactive: -8.6%
CC1=C(C(=O)Nc2cccc(F)c2)C2(CCCCC2)OC1=O | inactive: 1.26%
